# Measurements taken from PubChem BioAssay (NCI).
# Where “and” joins values, the source holds several entries; their conditions need not be identical. Equal entries are not always repeated.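 Following 48 hours of exposure in 96-well plates, responses at five concentrations were used to interpolate endpoints linearly. Here, GI50 denotes the concentration required for 50% inhibition of growth. TGI: concentration producing complete growth inhibition.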
# Test system: NCI-H322M lung
# Assay: NCI-60 cell line screen, 48 h
SMILES,GI50 [µM],TGI
COc1ccc2c(c1)C=C1CSCC3=Cc4cc(OC)ccc4OC13O2,0.729,> 100 µM
CC(=O)O/N=C/c1cc2c(cc1Br)OCO2,–,> 349 µM
COC1C(OC(N)=O)C(O)C(Oc2ccc3c(O)c(NC(=O)c4ccc(O)c(CC=C(C)C)c4)c(=O)oc3c2C)OC1(C)C (stereo unspecified),–,> 100 µM
CC1CC(=O)c2c(ccc3c2C(=O)c2cccc(O)c2C3=O)C1 (stereo unspecified),–,51.5 µM
NCCSC(C[N+](=O)[O-])c1ccccc1Cl (stereo unspecified),16.5,32.1 µM
Cc1cc(C#N)c(Nc2ccccc2[N+](=O)[O-])s1,–,> 100 µM
Cc1nc2nn(C)cc2c(=O)n1/N=C/c1ccccc1,–,> 100 µM
C[N+]12CCCCC1C(CN1C(=O)c3ccccc3C1=O)CCC2 (stereo unspecified),–,> 100 µM
O=S(=O)(N/N=C/c1ccc(Cl)cc1Cl)c1ccccc1,–,> 100 µM
CCOC(=O)Oc1ccc2c(c1)c(=O)c1c(NCCCN(CC)CC)ccc3nnn2c31,–,19.1 µM
O=C1c2ccccc2C(=O)c2c(O)c(NCCNCCO)cc(O)c21,–,10.8 µM
O=C(O)C1CC2CC(=O)C1C2 (stereo unspecified),–,> 100 µM
N#CC(C(=O)CCC(=O)Nc1ccc(Cl)c(Cl)c1)c1ccc(Cl)cc1 (stereo unspecified),–,> 100 µM
O=C1NC(SCc2ccc(F)cc2)=N/C1=C/c1cccc(OCc2ccc(Cl)cc2)c1,> 100,> 100 µM
C(=N/NC1=NCCN1)/c1c2ccccc2c(/C=N\NC2=NCCN2)c2ccccc12,–,0.68 µM and 0.735 µM and 0.81 µM
CC(=O)/C(=C(/Br)I)c1ccccc1,–,29.1 µM
O=c1[nH]c2c(c3ccccc13)CCc1ccccc1-2,–,> 100 µM
CSc1nc(-c2ccc(Cl)cc2)c(C#N)c(=O)[nH]1,–,> 100 µM
COc1cc(Cc2ccc3c(c2C#N)N(C)c2ccccc2S3)cc(OC)c1OC,–,> 100 µM
Cc1ccc(-n2cc(-c3ccc(Cl)cc3)c(C#N)c2N)cc1,–,36.8 µM

SMILES,GI50 [µM],TGI
COC(=O)CCC(C)[C@H]1CCC2C3C(C[C@H](OC(C)=O)[C@@]21C)[C@@]1(C)CCC2(C[C@H]1C[C@H]3OC(C)=O)OOC1(CCCCC1)OO2 (stereo partly specified),–,> 100 µM
CCCCN(CCCC)CCC(O)c1cc2ccc(C(F)(F)F)cc2c2cc(C(F)(F)F)ccc12 (stereo unspecified),12,27.5 µM
C/C(=N\NC(=S)Nc1ccc(Cl)cc1)c1nc2ncccc2[nH]1,–,38.7 µM
CNc1ncnc2c1cnn2Cc1cn(CCCCO)nn1,–,> 100 µM
N#Cc1c(N2CCOCC2)ncn(-c2ccc(Cl)cc2)c1=O,–,> 100 µM
CC(Cc1ccc2c(c1)OCO2)N(C)C(=O)C1=CCN(C)CC1 (stereo unspecified),–,> 100 µM
CC/C(=C\c1ccc(Cl)c(Cl)c1)[N+](=O)[O-],–,28.8 µM
CN(C)C(=S)SCC(N)=O,–,> 100 µM
BrC1=CN2C[n+]3cc(Br)c4ccccc4c3N=C2c2ccccc21,–,75.5 µM
COc1ccc2c(c1OC)C(=O)O[C@@H]2[C@H]1c2c(c(Br)c3c(c2OC)OCO3)CCN1C,16.9,> 100 µM
COC(=O)[C@@H]1[C@H](O)CC[C@H]2[C@@]1(C)CC[C@@H](C)[C@]2(COC(C)=O)CC(=O)c1ccoc1,–,> 50 µM
CC1(C)N=C(Oc2ccccc2)n2nccc2N1,–,> 100 µM
O=C(CC(=O)C1CCOC1=O)C(=O)Nc1ccc(Cl)cc1 (stereo unspecified),–,> 100 µM
O=C1C=C(OCCCl)C(=O)c2c(O)ccc(O)c21,–,3.12 µM
Nc1cc(N)c(N=Nc2cccc3c(S(=O)(=O)O)cccc23)cc1N=Nc1cc([N+](=O)[O-])ccc1O,–,> 100 µM
COc1cc2c(cc1OCCCCCn1c3ccccc3c3ccccc31)N=C[C@@H]1CCCN1C2=O,3.83,16.3 µM
Cc1ccc([N+](=O)[O-])c2c(NCCC[N+](C)(C)[O-])ccnc12,–,> 100 µM
CCCC(CCC)C(=O)OCC1(CO)C/C(=C\c2ccc(C(F)(F)F)cc2)C(=O)O1 (stereo unspecified),13,27.8 µM
Oc1ccc(Cn2c(-c3ccc(O)cc3)nc3ccccc32)cc1,–,> 100 µM
